The supplement of paper PMC12217912
This is one part of the list. The full chains were built here from the parent and the listed change. Inactive controls read about 0.05.

B1: TEV protease; numbered along this chain (parent)
chain: MGESLFKGPRDYNPISSSICHLTNESDGHTTSLYGIGFGPFIITNKHLFRRNNGTLVVQSLHGVFKVKDTTTLQQHLVDGRDMIIIRMPKDFPPFPQKLKFREPQREERICLVTTNFQTKSMSSMVSDTSCTFPSGDGIFWKHWIQTKDGQCGSPLVSTRDGFIVGIHSASNFTNTNNYFTSVPKNFMELLTNQEAQQWVSGWRLNADSVLWGGHKVFMVKPEEPFQPVKEATQL

Variants of: B1
Assay: raw area under fraction-flipped curve 0-4 h after induction (AUC4h, not background-subtracted), DNA-recorder readout of cleavage of the substrate (dimensionless); higher = more cleavage of the substrate by the protease variant
Conditions: temperature: 34 °C; time window: 0-4 h after rhamnose induction
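Further: Bxb1 expression induced with 0.2% (w/v) L-rhamnose at OD600 near 0.5, cultures sampled hourly, flipped fraction per protease–substrate barcode pair counted by paired-end Illumina sequencing.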

Row | Variant | area with substrate ENLYEQS | area with substrate ENLYHQS | area with substrate ENLYNQS | area with substrate ENLYQQS | area with substrate ENLYRQS | area with substrate ENLYSQS | area with substrate ENLYTQS | area with substrate ENLYGQS | area with substrate ENLYIQS | area with substrate ENLYMQS | area with substrate ENLYVQS | area with substrate ENLYKQS | area with substrate ENLYPQS | area with substrate ENLYYQS | area with substrate ENLYLQS | area with substrate ENLYWQS
1 | T129G | 0.101 | 0.0731 | 0.0834 | 0.0639 | 0.0817 | 0.057 | 0.0773 | – | – | – | – | – | – | – | – | –
2 | A207G | 0.0723 | 0.0765 | 0.0782 | – | 0.0672 | – | 0.121 | 0.0698 | 0.134 | 0.0922 | 0.115 | – | – | – | – | –
3 | W203I | 0.0647 | 0.0588 | – | – | 0.0555 | – | – | 0.0596 | 0.0471 | 0.0612 | – | 0.0632 | 0.0656 | 0.0496 | – | –
4 | F140T | – | 0.0544 | 0.0735 | – | – | 0.069 | – | 0.0655 | 0.107 | – | – | 0.0394 | 0.0447 | – | 0.0715 | 0.0419
5 | L211A | 0.0551 | 0.0726 | 0.0812 | – | – | 0.0823 | – | – | 0.116 | 0.095 | – | 0.0721 | 0.0292 | – | – | 0.0736
6 | N116H | – | 0.0637 | – | 0.0615 | – | – | 0.0932 | – | 0.117 | – | 0.105 | – | 0.0744 | – | 0.0783 | –
7 | N178D | – | 0.0928 | – | 0.0572 | 0.0459 | 0.0733 | – | – | – | 0.0607 | – | 0.0655 | 0.0519 | – | – | 0.0549
8 | N178K | 0.0779 | 0.0692 | 0.0684 | 0.0368 | 0.0759 | 0.082 | – | 0.0681 | 0.126 | – | – | – | 0.0672 | 0.064 | 0.119 | 0.0667
9 | N178H | 0.0671 | 0.0643 | – | – | – | – | 0.0841 | 0.0688 | 0.136 | – | – | 0.068 | 0.0672 | – | 0.0657 | 0.108
10 | L205T | – | 0.0486 | – | – | – | – | – | – | – | – | – | 0.0721 | – | – | – | –
11 | M125I | – | 0.0435 | 0.0691 | 0.0657 | – | – | – | – | – | – | 0.127 | – | 0.0664 | – | 0.124 | –
12 | G153K | 0.0535 | 0.0418 | 0.0562 | – | 0.0487 | 0.0574 | – | 0.0578 | – | – | 0.0528 | – | – | – | – | 0.0463
13 | R160L | – | 0.0608 | – | – | 0.0663 | – | – | – | – | 0.0977 | – | 0.069 | – | 0.0535 | – | 0.0806
14 | I139R | 0.0546 | 0.0568 | 0.0624 | 0.062 | 0.0666 | 0.0595 | 0.0922 | 0.082 | 0.0671 | – | – | 0.0575 | 0.0615 | – | – | 0.0826
15 | Q234A | 0.105 | 0.0844 | 0.0714 | 0.062 | 0.0532 | – | – | 0.0565 | 0.116 | – | – | – | 0.0592 | – | – | 0.087
16 | L235K | 0.051 | – | 0.0708 | – | – | 0.0718 | – | – | 0.146 | 0.092 | 0.125 | 0.05 | 0.0731 | – | 0.0992 | 0.0884
17 | E224G | 0.0913 | – | – | – | 0.0538 | 0.0677 | – | 0.0573 | 0.0881 | – | – | 0.0471 | – | 0.0726 | 0.0856 | 0.0661
18 | L190A | 0.0675 | – | 0.0704 | 0.0507 | 0.064 | – | 0.0808 | – | 0.116 | 0.0856 | 0.11 | 0.0499 | 0.0845 | 0.0604 | – | 0.0767
19 | Q197T | 0.0609 | 0.0829 | 0.0604 | – | – | – | 0.0959 | – | – | 0.08 | – | – | 0.0687 | 0.0678 | – | –

Row | Variant | area with substrate ENLYEQS | area with substrate ENLYHQS | area with substrate ENLYNQS | area with substrate ENLYQQS | area with substrate ENLYRQS | area with substrate ENLYSQS | area with substrate ENLYTQS | area with substrate ENLYGQS | area with substrate ENLYIQS | area with substrate ENLYMQS | area with substrate ENLYVQS | area with substrate ENLYKQS | area with substrate ENLYPQS | area with substrate ENLYYQS | area with substrate ENLYLQS | area with substrate ENLYWQS
20 | T147K | 0.0673 | 0.066 | – | 0.0577 | 0.0558 | 0.0576 | 0.0569 | 0.0552 | 0.0576 | – | – | 0.0624 | – | – | – | –
21 | V217S | 0.0515 | 0.0514 | 0.0723 | 0.0782 | 0.0603 | 0.0575 | – | 0.046 | – | – | 0.0541 | 0.0679 | 0.0559 | 0.0544 | 0.0373 | 0.0573
22 | V217F | 0.0668 | 0.0762 | 0.0588 | 0.0587 | 0.0734 | 0.0771 | – | 0.0783 | – | 0.0602 | – | – | – | – | – | 0.035
23 | S124N | – | – | 0.0601 | 0.0702 | – | – | – | – | – | – | 0.0871 | 0.09 | – | 0.074 | – | 0.0941
24 | K142A | 0.0759 | 0.0776 | 0.0606 | – | 0.0722 | – | 0.0726 | – | – | – | 0.104 | – | 0.0674 | 0.0715 | – | 0.0732
25 | L73K | – | 0.0601 | 0.0312 | – | 0.0615 | – | – | 0.0669 | 0.0502 | 0.0505 | 0.0568 | 0.0179 | – | – | – | 0.08
26 | P94F | – | – | – | – | 0.0591 | – | – | – | 0.0409 | – | 0.107 | 0.0511 | 0.063 | – | – | 0.107
27 | P134N | 0.0648 | 0.046 | 0.0592 | 0.045 | – | – | 0.0631 | – | – | 0.0764 | 0.0898 | 0.0653 | 0.068 | – | 0.0756 | 0.0669
28 | S171A | – | 0.0865 | – | – | 0.0563 | – | – | – | 0.107 | 0.0829 | 0.0926 | 0.0737 | 0.0717 | – | – | –
29 | S171Q | – | 0.0418 | 0.0681 | – | 0.0722 | – | – | 0.0381 | 0.0777 | – | – | – | – | – | – | 0.0485
30 | S154Y | 0.12 | 0.0434 | – | – | 0.0544 | 0.0755 | – | – | 0.102 | 0.0792 | 0.117 | 0.0399 | – | – | 0.0737 | –
31 | V58H | – | – | 0.046 | 0.048 | 0.0699 | 0.0703 | – | – | – | – | – | 0.0397 | – | – | – | –
32 | P225Q | 0.073 | – | 0.0579 | 0.0729 | 0.0669 | – | – | 0.0715 | 0.154 | 0.0827 | 0.0575 | – | – | 0.0921 | – | 0.0751
33 | T159D | – | 0.0848 | – | – | 0.0822 | – | – | 0.0364 | – | – | – | 0.0842 | – | – | – | –
34 | T159N | – | 0.0563 | – | 0.0589 | – | – | – | 0.0675 | 0.107 | 0.0704 | 0.141 | – | – | – | – | 0.0789
35 | G150D | 0.0653 | – | 0.0716 | 0.091 | 0.0539 | – | – | 0.0443 | 0.0503 | 0.0646 | 0.0658 | 0.0504 | – | 0.067 | – | 0.0497
36 | D149L | 0.0639 | 0.0737 | – | 0.0607 | – | – | 0.0683 | 0.0699 | 0.0828 | 0.0593 | – | 0.0782 | 0.0688 | – | – | –
37 | L99G | – | – | 0.0716 | – | – | 0.0735 | 0.0678 | – | 0.105 | – | – | – | 0.067 | 0.0478 | – | 0.0677
